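In this assay, cells in 96-well plates receive the compound at five concentrations for 48 hours. Endpoints are linearly interpolated between the surrounding concentrations. The concentration for 50% growth inhibition is given as GI50.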 The source made the active and inactive calls. No stated cut-off is given here; in the data, active = GI50 up to about 1.1 µM and inactive = higher. Peptide text beside a SMILES is read from it.
Each compound was assayed on NCI-H322M (assay: inhibition of tumour cell growth, NCI panel, 48 h).

SMILES	GI50
COc1cc(C2c3cc4c(cc3[C@@H](NCCN3CCOCC3)C3COC(=O)[C@H]23)OCO4)cc(OC)c1O (stereo partly specified)	inactive: 7.06 µM
Cn1c(-c2cccs2)cc(-c2cccs2)c1-c1ccco1	inactive: > 83.4 µM
N#C/C(=C\c1cc(O)c(O)c(O)c1)C(N)=O	inactive: > 79.1 µM
CSc1c([S+](C)[O-])[nH]c2cc(Br)cc(Br)c12 (stereo unspecified)	inactive: 27.2 µM
CC1=CC(=O)C(=O)C2=C1OC1(C2)C(C)CCC2C3(C)CCC(O)C(C)(C)C3CCC21C (stereo unspecified)	inactive: 24.5 µM
COc1cc2c3c(c1Oc1nnnn1-c1ccccc1)-c1c(ccc4c1OCO4)C[C@H]3N(C)CC2	inactive: 42.5 µM
O=C1C(=O)c2cc([N+](=O)[O-])ccc2-c2ccc([N+](=O)[O-])cc21	inactive: 1.95 µM
CN1CN(c2ccccc2)C2(CCN(CCCSc3ccccc3NC(=O)/C=C/c3ccccc3)CC2)C1=O	inactive: > 100 µM
O=C(CSc1nnc(Cc2ccccc2)o1)Nc1ccc([N+](=O)[O-])cc1	inactive: > 100 µM
CCCCCCCCCCCCCC(=O)N(CCCCCCCCC)CC(O)C(O)C(OC1OC(CO)C(O)C(O)C1O)C(O)CO (stereo unspecified)	inactive: 17 µM
CC(C)[C@]12O[C@H]1[C@@H]1O[C@@]13[C@@]1(C)CCC4=C(COC4=O)[C@@H]1C[C@@H]1O[C@@]13C2=O [TRIPTONIDE]	active: 0.0264 µM
C[N+](C)(C)CC(=O)N/N=C(\C(=O)NC1=C(Cl)C(=O)c2ccccc2C1=O)C(C#N)c1nc(-c2ccc([N+](=O)[O-])cc2)cs1 (stereo unspecified)	inactive: 10.7 µM
COc1cc2cc[n+](C)c(Cc3ccc(Oc4cc(Cc5c6cc(OC)c(OC)cc6cc[n+]5C)ccc4OC)cc3)c2cc1OC	inactive: > 100 µM
N/C(=N\c1ccc(Cl)cc1)NS(=O)(=O)c1ccc(S(=O)(=O)c2ccccc2)s1	inactive: 20.1 µM
Cc1cn(C2CC(N(O)Cc3ccccc3)C(CO)O2)c(=O)[nH]c1=O (stereo unspecified)	inactive: > 100 µM
COc1ccc(-c2cc(-c3ccc(Nc4ccnc5cc(Cl)ccc45)cc3)nc(N)c2C#N)cc1	inactive: > 100 µM
O=C(O)C(F)(OC(F)(F)C(F)(F)C(F)(F)F)C(F)(F)F (stereo unspecified)	inactive: > 100 µM
CCOC(=O)CCC(C(=O)OCC)n1nc2ccc(Nc3c(C)[n+]([O-])c4cc(F)c(OCC)cc4[n+]3[O-])cc2n1 (stereo unspecified)	inactive: > 100 µM
OCC1OC2c3ccccc3COC2C1OCc1ccccc1 (stereo unspecified)	inactive: > 100 µM
CN1CCN(C(=S)N(C)C(=O)c2ccc(Cl)cc2)CC1	inactive: > 100 µM
COc1ccc(/C=C\c2cc(OC)c(OC)c(OC)c2)cc1OCC(=O)O	inactive: 11.2 µM
CC(O)c1nc(C#N)c(N)o1 (stereo unspecified)	inactive: > 100 µM

SMILES	GI50
C[C@]12c3c4cc(NC(=O)C(=O)NCc5ccc(-c6ccccn6)nc5)cc3Oc3cc(NC(=O)C(=O)NCc5ccc(-c6ccccn6)nc5)cc(c31)OC1C=C(NC(=O)C(=O)NCc3ccc(-c5ccccn5)nc3)C=C(O4)C12 (stereo partly specified)	inactive: 19.5 µM
C/C(=C1/CCCC2(N=NCC2c2ccccc2)C1=O)c1ccccc1 (stereo unspecified)	inactive: 39 µM
O=C(CCBr)N1CCN(C(=O)CCBr)CC1 [PIPOBROMAN]	inactive: 118 µM
O=C1Oc2ccccc2C(=O)/C1=C/N1C(=O)N/C(=C\c2ccccc2O)C1=O	inactive: 50.9 µM
Cn1c(=O)c2[nH]c(-n3nc(-c4ccccc4)cc3N)nc2n(C)c1=O	inactive: 4.93 µM
CCCCCC(=O)N[C@H](C(=O)N[C@H](C(=O)N(C)[C@@H](CC(C)C)C(=O)N1CCC[C@H]1C(=O)N1CCC[C@H]1C(=O)O[C@H](C(=O)N1C(=O)C=C(OC)[C@@H]1Cc1ccccc1)C(C)C)C(C)C)C(C)C (HELM PEPTIDE1{[CCCCCC(=O)[*:2]].V.V.[meL].P.P.[COC1=CC(=O)N(C(=O)[C@@H](O[*:1])C(C)C)[C@H]1Cc1ccccc1]}$$$$V2.0)	inactive: 57 µM
O=C1/C(=C/c2ccccc2)N=C2Sc3c([nH]cnc3=O)N12	inactive: > 100 µM
O=C(O)c1ccccc1/C=N/N=C1NCCN1	inactive: > 100 µM
CC1=NN(c2nc(N)nc(/C(C#N)=C\c3csc([N+](=O)[O-])c3)n2)C(C)(C)C1	inactive: 34.2 µM
CC1C[C@]2(C)C(NCCN)=Nc3ccccc3[C@@H]2N(C)c2ccccc21 (stereo partly specified)	inactive: 10.9 µM
COC(=O)/C=C1/OC(c2ccccc2)=C(Cl)C1=O	inactive: 27.2 µM
COc1ccc2[nH]c3c(C)c4ccnc(NCCCN(C)CCCNC(=O)NCCCN(C)CCCNc5nccc6c(C)c7[nH]c8ccc(OC)cc8c7c(C)c56)c4c(C)c3c2c1	active: 0.929 µM
COc1ccccc1NC(=O)CC(=O)NN	inactive: > 100 µM
CC1=CC(C)C(C)N(CCNC(=O)Nc2ccccc2)c2ccccc21 (stereo unspecified)	inactive: 18.8 µM
COC(=O)CSC(=S)Nc1nnc(NC(=S)SCOC(C)=O)n1C(=S)SCC(=O)OC	inactive: > 100 µM
C/C=C/CC(C(=O)OCC)(N(C)C(=O)OC(C)(C)C)S(=O)(=O)c1ccc(C)cc1 (stereo unspecified)	inactive: > 100 µM
Cc1cccc2c1c(=O)c1c(O)cc(O)cc1n2C	inactive: > 100 µM
CN1NC(c2ccccc2)=C(C#N)C(=O)CC1c1ccc(F)cc1 (stereo unspecified)	inactive: > 100 µM
CC(=O)NNc1nc(C)c(C(/C=C/c2ccc(Cl)cc2)=N\NS(=O)(=O)c2ccc(C)cc2)s1	inactive: > 100 µM
CCOC(=O)c1cc2c(ccc3cc(C(=O)OCC)[nH]c32)[nH]1	inactive: 42.2 µM
CC(C)CC(N)C(=O)OCN1C(=O)C2C3C=CC(C2C1=O)C1C2C(=O)N(COC(=O)C(N)CC(C)C)C(=O)C2C31 (stereo unspecified)	inactive: > 100 µM
CNC(Cc1ccccc1)c1cccc(OC)c1O (stereo unspecified)	inactive: > 100 µM

SMILES	GI50
CC(=O)N(C)CCc1c[nH]c2ccccc12	inactive: > 100 µM
COc1ccc(CNc2nc3cc(C(F)(F)F)ccc3nc2C(=O)O)cc1OC	inactive: 28.1 µM
Cc1c(N2C(=O)/C(=C/C=C/c3ccccc3)N=C2c2ccccc2)c(=O)n(-c2ccccc2)n1C	inactive: 57 µM
C[N+](C)=c1nc(N2CCOCC2)ss1	inactive: > 100 µM
C=C1C(C(O)C[C@H](C)C2O[C@@]3(CCCCO3)CCC2C)O[C@@H]2CCC3(CCC(/C=C/[C@@H](C)C4CC(C)=CC5(O4)O[C@H](C[C@](C)(O)C(=O)O)CCC5O)O3)OC2[C@@H]1O (stereo partly specified)	active: 0.00459 µM
Cc1ccc(C)n2c1nc1cc3ccccc3cc12	inactive: 15.7 µM
O=C1C=C(Nc2ccc(Br)cc2)c2ccccc2C1=O	inactive: 14.4 µM
Nc1cc(Cl)cc2cc(Cl)cnc12	inactive: > 100 µM
CC(C)=CCC/C(C)=C/CC/C(C)=C/CSc1ccc(Cl)cc1C(=O)O	inactive: 18.1 µM
C=CCN1C(=O)CS/C1=N\NC(=O)CSc1nc2ccccc2c(=O)n1CC	inactive: > 100 µM
NS(=O)(=O)c1ccc(NCc2cnc3ccccc3n2)cc1	inactive: > 100 µM
CC1CCC2(OC1)OC1CC3C4CC=C5CC(OC6OC(CO)C(OC7OC(C)C(OC8OC(C)C(O)C(O)C8O)C(O)C7O)C(O)C6OC6OC(C)C(O)C(O)C6O)CCC5(C)C4CCC3(C)C1C2C (stereo unspecified)	active: 0.431 µM
N#CC(C#N)=CNC(N)=S	inactive: > 100 µM
C1CCNCC1.Oc1ncnc2[nH]cc(CN3CCCCC3)c12	inactive: > 100 µM
COc1cc2c(cc1C1=NC(C)(C)CO1)OCO2	inactive: > 100 µM
Clc1cc(Cl)c2cc3cccc[n+]3cc2c1Cl	inactive: 20.3 µM
O=S(O)CCCSSc1ccccc1	inactive: > 100 µM
O=C1CCC2(c3ccc(Cl)cc3)Nc3ccncc3N12 (stereo unspecified)	inactive: > 10 µM
COc1cc2cc3c4cc(OC)c(OC)cc4cc[n+]3c(C)c2cc1OC.O=C([O-])CS(=O)(=O)O	inactive: 37.3 µM
COC(=O)Cc1c2n(c3ccccc13)C(=O)N1c3ccccc3C(CC(=O)OC)C21 (stereo unspecified)	inactive: > 100 µM
Nc1nc2c(ncn2CC2CCC(CO)C2)c(=O)[nH]1 (stereo unspecified)	inactive: > 100 µM
S=C1NNC(=S)NN1	active: > 1 µM

SMILES	GI50
O=C(O)c1cc(-c2ccc3c(O)ccc(O)c3c2)ccc1O	inactive: 35.5 µM
CCC(/C=C/c1ccccc1)=N\N=C(\C=C\c1ccccc1)CC	inactive: > 100 µM
CC(C)N(C(=O)c1ccc(NCc2cc(O)ccc2O)cc1)C(C)C	inactive: 22.8 µM
N#CC(C(=O)O)C(c1c(Cl)cccc1Cl)C(C#N)C(=O)O (stereo unspecified)	inactive: > 100 µM
COC(=O)CC1C[C@H](C#N)N(C(=O)c2ccccc2)C[C@@H]1CC[N+](=O)[O-] (stereo partly specified)	inactive: > 100 µM
COC(=O)CCc1cc(OC)c2c(c1)C(C(=O)OC)C(c1ccc(OC)c(OC)c1)O2 (stereo unspecified)	inactive: > 100 µM
Cc1cn(Cc2cn(CC3OC(n4cc(C)c(=O)[nH]c4=O)CC3O)nn2)c(=O)[nH]c1=O (stereo unspecified)	inactive: > 100 µM
CC(C)(C)/C(=N\Nc1nc2ccccc2[nH]1)c1ccccn1	inactive: 46.7 µM
Cc1ccnc(NC(=S)Nc2ccc([N+](=O)[O-])cc2)c1	inactive: > 100 µM
O=C(CC(CC(=O)Oc1c(Br)cc(Br)cc1C(=O)O)C(=O)Oc1c(Br)cc(Br)cc1C(=O)O)Oc1c(Br)cc(Br)cc1C(=O)O	inactive: 33.1 µM
O=C(NC1CCCCC1)N1CCNC1=S	inactive: > 100 µM
O=C1Nc2ccccc2SC1=C(C(=O)c1ccccc1)C(=O)c1ccccc1	inactive: 30.9 µM
Cc1ccc(C)c(NC(=O)CC2C(=O)Nc3ccccc3S2(=O)=O)c1 (stereo unspecified)	inactive: > 100 µM
O=C(O)CCNc1ccccc1C(=O)O	inactive: 56.5 µM
COc1ccc(-c2cc(-c3cc(F)c(Cl)cc3Cl)on2)cc1OC	inactive: > 100 µM
Cc1cc(OCc2nnc3n2N=C(c2cc(F)c(Cl)cc2Cl)/C(=C/c2ccc(Cl)cc2)S3)ccc1Cl	inactive: 38.7 µM
N=c1n(CC(=O)NC23CC4CC(CC(C4)C2)C3)c2ccccc2n1CC(=O)NC12CC3CC(CC(C3)C1)C2	inactive: 2.4 µM
CC1=COC2=C(C)C(=O)C(=O)c3c(C)ccc1c32 [MANSONONE F]	inactive: 2.65 µM
COC(=O)C(=O)c1cc2ccccc2n1S(=O)(=O)c1ccccc1	inactive: > 100 µM
O=C(Nc1c(O)[nH]c(=S)[nH]c1=O)c1ccccc1F	inactive: > 100 µM

Source: ChEMBL document CHEMBL1201862, “PubChem BioAssay data set” (2004)
